{"source": "PubChem BioAssay AID1963968", "about": "(Molecular Pharmacology Branch, DTP, NCI, 2024)", "test_system": "945468-187-T-J3-PDC spheroids with HUVEC/MSC, viability", "assay": "Anticancer human tumor 945468-187-T-J3-PDC patient-derived rectal carcinoma cell line growth inhibition [PI3K]", "conditions": "for viability, T/C: stronger effect = lower value; for IC50: compound alone", "source_text": "Combinatorial screen of targeted agents with the PI3K inhibitors inavolisib, alpelisib, duvelisib, and copanlisib in multi-cell type tumor spheroids\nA high-throughput screen of multi-cell type tumor spheroids was designed to identify active combinations of targeted small molecules and PI3K pathway inhibitors. Complex spheroids include a stromal component modeled by human endothelial cells (HUVEC) and fibroblasts modeled by human mesenchymal stem cells (MSCs). The concentration ranges selected for each drug and investigational agent were based upon clinically achievable concentrations if the clinical Cmax of the agent was known.\nCompounds. The drugs and investigational agents: inavolisib (NSC800729), alpelisib (NSC765974), duvelisib (NSC772469), copanlisib (NSC816437), ipatasertib (NSC767898), afuresertib (NSC778305), talazoparib (NSC767125), sapanisertib (NSC764658), selumetinib (NSC741078), tovorafenib (DAY101, NSC766906), vemurafenib (NSC761431), ravoxertinib (NSC781343), sotorasib (NSC818433), MRTX1133 (NSC 836407), abemaciclib (NSC 768073), palbociclib (NSC758247), venetoclax (NSC 766270), SY5609 (NSC837396), enzalutamide (NSC755605), and darolutamide (NSC825331), were obtained from the National Cancer Institute (NCI) Developmental Therapeutics Program Chemical Repository. The FDA-approved anticancer drug set is available from the NCI Developmental Therapeutics Program. […] The stock solutions were prepared in dimethyl sulfoxide (DMSO, Sigma-Aldrich, St. Louis, MO, cat. D2650) at 800-fold the tested concentration and stored at -70 degrees C prior to their use. All drugs and investigational agents were tested over a range starting from a high concentration at or near the clinical Cmax and decreasing in half-log increments. If the clinical Cmax for an agent had not been determined, the highest concentration tested was 10 microM.\nCell Culture. All cells were maintained in an incubator at 37 degrees C and 5% CO2 with 95% humidity. The PDC lines were cultured according to standard operating procedures established by the NCI PDMR (https://pdmr.cancer.gov/sops/default.htm). All PDCs were thawed and cultured in Matrigel-coated flasks prepared with a working solution of 1X Ham's F-12 nutrient mix, without supplementation (Invitrogen, Waltham, MA, cat. 11765054), 100 U/mL penicillin-streptomycin (Invitrogen, cat. 15140122), and 2.5% Matrigel (Corning Inc., Corning, NY, cat. 354248) for the first three passages. The 354836-022-R-J1-PDC, 475296-252-R-J1-PDC, and 997726-040-R-J2-PDC lines were cultured in 6A media, which includes advanced DMEM/F-12 (Thermo Fisher Scientific, cat. 12634028), 10 mM HEPES (Thermo Fisher Scientific, cat. 15630080), 1X GlutaMAX supplement (Thermo Fisher Scientific, cat. 35050061), 0.1 mg/mL primocin (InvivoGen, San Diego, CA, cat. ant-pm-2), 10% defined fetal bovine serum, heat inactivated (HyClone Laboratories Inc., Logan, UT, cat. SH30070.03HI), 50% L-WRN conditioned media (ATCC, cat. CRL-3276), 1.25 mM N-Acetyl-L-cysteine (Sigma-Aldrich, cat. A9165), 10 mM nicotinamide (Sigma-Aldrich, cat. N0636), 1X B-27 supplement (Thermo Fisher Scientific, cat. 17504044), 1X N-2 supplement (Thermo Fisher Scientific, cat. 17502048), and 10 microM Y-27632 dihydrochloride (Tocris Bioscience, Bristol, United Kingdom, cat. 1254). The 624824-186-R-J2-PDC line was cultured in 6C/Colon 1B media, which includes all 6A media components plus 50 ng/mL human EGF recombinant protein (Thermo Fisher Scientific, cat. PHG0311). […]", "note": "Not every entry of the source has a single result; some have several. Only these are listed. There may be further records. Values given together are repeated measurements (runs, samples, wells, individuals or studies).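 Further: spheroids exposed to agents for 7 days before viability read.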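 Wherever viability, T/C is given: 100% = DMSO vehicle control viability.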"}
{"smiles": "CC1(C)CCC(Nc2ncc(C(F)(F)F)c(-c3c[nH]c4c(P(C)(C)=O)c(C#N)ccc34)n2)CN1", "note": "(stereo not drawn)", "values": [{"measurement": "viability, T/C", "setting": "compound alone 0.1 µM", "value": "68.1, 82.9, 58, 43.4%"}, {"measurement": "viability, T/C", "setting": "compound alone 0.316 µM", "value": "71.8, 74, 57.5, 40%"}, {"measurement": "viability, T/C", "setting": "compound alone 1 µM", "value": "87.8, 93.3, 57.9, 52.4%"}, {"measurement": "viability, T/C", "setting": "compound alone 3.16 µM", "value": "84.4, 102, 82.8, 67.3%"}]}
{"smiles": "Cn1cnc2c(F)c(Nc3ccc(Br)cc3Cl)c(C(=O)NOCCO)cc21", "values": [{"measurement": "viability, T/C", "setting": "compound alone 3 µM", "value": "114, 105, 84.4, 89%"}]}
{"smiles": "Cn1ncc(Cl)c1-c1cc(C(=O)NC(CN)Cc2cccc(F)c2)sc1Cl", "note": "(stereo not drawn)", "values": [{"measurement": "IC50", "value": "> 10 µM, 2.01 µM, 921 nM"}, {"measurement": "viability, T/C", "setting": "compound alone 1 µM", "value": "75.7, 82.9, 58, 47.6%"}]}
{"smiles": "CC1(C)CCC(CN2CCN(c3ccc(C(=O)NS(=O)(=O)c4ccc(NCC5CCOCC5)c([N+](=O)[O-])c4)c(Oc4cnc5[nH]ccc5c4)c3)CC2)=C(c2ccc(Cl)cc2)C1", "values": [{"measurement": "viability, T/C", "setting": "compound alone 10 µM", "value": "12.8, 64.2, 109, 28.2%"}]}
{"smiles": "CC(C)NCC(C(=O)N1CCN(c2ncnc3c2C(C)CC3O)CC1)c1ccc(Cl)cc1", "note": "(stereo not drawn)", "values": [{"measurement": "IC50", "value": "> 10 µM, 6.22 µM, 5.57 µM, 4.64 µM"}, {"measurement": "viability, T/C", "setting": "compound alone 0.1 µM", "value": "112, 103, 99, 84.9%"}]}
{"smiles": "CCCS(=O)(=O)Nc1ccc(F)c(C(=O)c2c[nH]c3ncc(-c4ccc(Cl)cc4)cc23)c1F", "values": [{"measurement": "viability, T/C", "setting": "compound alone 0.316 µM", "value": "114, 104, 90.7, 87.9%"}, {"measurement": "viability, T/C", "setting": "compound alone 10 µM", "value": "19.4, 16.8, 29.4, 43.7%"}]}
{"smiles": "CNC(=O)c1ccc(N2C(=S)N(c3ccc(C#N)c(C(F)(F)F)c3)C(=O)C2(C)C)cc1F", "values": [{"measurement": "viability, T/C", "setting": "compound alone 1 µM", "value": "107, 118, 96, 91.2%"}]}
{"smiles": "CC(C)n1nc(-c2ccc3oc(N)nc3c2)c2c(N)ncnc21", "values": [{"measurement": "viability, T/C", "setting": "compound alone 0.0316 µM", "value": "123, 110, 108, 94.8%"}, {"measurement": "viability, T/C", "setting": "compound alone 0.1 µM", "value": "77, 68.5, 52.7, 47.8%"}]}
{"smiles": "CC(Nc1ccc2c(c1)OCCn1cc(N3C(=O)OCC3C(F)F)nc1-2)C(N)=O", "note": "(stereo not drawn)", "values": [{"measurement": "viability, T/C", "setting": "compound alone 0.1 µM", "value": "109, 104, 106, 114, 107, 88.9, 101%"}]}
{"smiles": "Cn1nccc1Nc1nccc(-c2ccn(C(CO)c3ccc(Cl)c(F)c3)c(=O)c2)n1", "note": "(stereo not drawn)", "values": [{"measurement": "viability, T/C", "setting": "compound alone 0.316 µM", "value": "121, 104, 110, 95.5%"}, {"measurement": "viability, T/C", "setting": "compound alone 10 µM", "value": "141, 123, 138, 115%"}]}
